Test results published in the RNAGym collection of RNA variant scans (doi:10.1073/pnas.2313332121).
Variants at the background level are over-represented here.

B1: TPR 5TU (parent)
chain: GGAUCUUCUCGAUCUAACAAAAAAGACAAAUCUGCCACAAAGCUUGAGAGCAUCUUCGGAUGCAGAGGCGGCAGCCUUCGGUGGCGCGAUAGCGCCAACGUUCUCAACUAUGACACGCAAAACGCGUGCUCCGUUGAAUGGAGUUUAUCAUG

Variants of: B1
Experiment: polymerase ribozyme fitness, log enrichment relative to wild type (log ratio); higher = more active; in vitro selection for triplet polymerase activity
Outline: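 Only genotypes with ≥10 input reads and ≥1 read per output were kept after Illumina sequencing of input and output libraries. These libraries were PCR-built, transcribed mutants of each subunit of a heterodimeric triplet polymerase ribozyme, each put through one triplicate in vitro selection round with frozen incubation at −7 °C, gel excision of extended constructs, streptavidin-bead capture and RT-PCR. Fitness is a logarithmic ratio of genotype enrichment to wild-type enrichment, from inverse-variance-weighted replicate averages, with the logarithm in base 2.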

Variant	polymerase ribozyme fitness (log ratio)
GGAUCUUCUCGAUCUAACAAUAAAGACAAAUCUGCCACAAAGCUUGAGAGCAUCUUCGGAUGCAGAGGCGGCAGCCUUCGGUGCCGCGAUAGCGCCAACGUUCUCAACUAUGACACGCAAAACGCGUUCUCCGUUGAAUGGAGUUUAUCAUG [A21U G84C G128U]	≤ -4.2
GGAUCUUCUCGAUCUAACAAUAAAGACAAAUCUGCCACAAAGCUUGAGAGCAUCUACGGAUGCAGAGGCGGCAGACUUCGGUGGCGCAAUAGCGCCAACGUUCUCAACUAUGACACGCAAAACGCGUGCUCCGUUGAAUGGAGUUUAUCAUG [A21U U56A C75A G88A]	≤ -4.2
GGAUCUUCUCGAUCUAACAAACAAGACUAAUCUGCCACAAAGCUUGCGAGCAUCUUCGGAGGCAGAGGCGGCAGCCUUGGGUGGCGCGAUAGCGUCAACGUUCUCAACUAUGACACGAAAAACGCGUGCUCCGUUGAAUGGAGUUUAUCAUG [A22C A28U A47C U61G C79G C95U C118A]	≤ -4.2
GGAUCUUCUCGAUCUAACAAUAAAGACAAAUCUGCCACAAAGCUUGAGAGCAUCUUCGGAUGCAUAGGCGGCAGCCUUCGGUGGUGCGAUAGCGCCAACGUUCUAAACUAUGACACGCAAAACGCGUGCUCCGUUGAAUGGAGAUUAUCAUG [A21U G65U C85U C105A U144A]	≤ -4.2
GGAUCUUCUCGAUCUAACAAUAAAGACAAAUCUGCCACAAAGCUUGAGAGCAUCUUCGGAUGCAGAGGCGGCAGCCUUCGGUGACGCUAUAGCGCGAACGUUCUCAACUAUGUCACGCAAAACGCGUGCUCCGUUGAAUGGAGGUUAUCAUG [A21U G84A G88U C96G A113U U144G]	≤ -4.2
GGAUCUUCUCGAUCUAACAAUAAAGACAAAUCUGCCACAAAGCUUGAGAGCAUCUUCGGAUGCAGAGCGGGCAGCCUUCGGUGGCGCGAUAGCGCCAACGUUCUCAACUAUGACAUGCAAAACGCGUGCUCCGUUGAAUGGAGUUUAUCAUG [A21U G68C C69G C116U]	≤ -4.2
GGAUCUUCUCGAUCUAACAAUAAAGACAAAUCGGCCACAAAGCUUGAGAGCAUCUUCUGAUGCAGCGGCGACAGCCUUCAGUGGCGCGAUAGCGACAACGUUCUCAACUAUGACACGCAAAACGCGUGCUCCGUUGAAUGGAGUUUAUCGUG [A21U U33G G58U A66C G71A G80A C95A A150G]	≤ -4.2
GGAUCUUCUCGAUCUAACAAUAAAGACAAAUCGGCCACAAAGCUUGAGAGCAUCUUCGGAUGCAGAGGCGGCAGCCUUCGGUGGCGCGAUAGCGCCAACGUUCUCAACUAUGACACGCAAAUCGCGUGCUCCGUUGAAUGGAGGUUAUCAUG [A21U U33G A122U U144G]	-3.94
GGAUCUUCUCGAUCUAACAAUAAAGACAAAUCUGCCACAAAGCAUGAGAGCAUCUUCGGAUGCAGAGGCGGCAGCCUUCGGCGACGCGAUAGCGCCAACGUUCUCAACUAUGACACGCAAAACGCGUGCUCCGUUGCAUAGAGUUUAUCAUG [A21U U44A U82C G84A A137C G140A]	≤ -4.2
GGAUCUUCUCGAUCUAACAAUAAAGACAAAUCUGCCACAAAGCUUGAGAGCAUCUUCGGAUGCAGAGGCGGCAGCCUUCUGUGGCGCGAUAGCACCAACGUUCUCAACUAUGACACGCAAAACGCGUGCUCCGUUGAAUGGAGUUUUUCAUG [A21U G80U G94A A147U]	-0.607
GGAUCUUCUCGAUCUAACAAACAAGACAAAUCUGCCACAAAGCUUGAGCGCAUCUUCGGAUGCAGAGGCGGCAGCCUUCGGUGCCGCGAUAGCUCCAACGUUCUCAACUAUGACACGCAAAACGCGUGCUCCGUUGAAUGGAGUUUAUCAUG [A22C A49C G84C G94U]	≤ -4.2
GGAUCUUCUCGAUCUAACAAACAGGACAAAUCUGCCACAAAGCUUGAGAGGCUCUACGGAUGCAGAGGCGGCAGCCUUCGGUGGCGCGAUAGCGCCAACGUUCUCAACUAUGACACGCAACACGCGUGCUCCGUUGAAUGGAGUUUAUCAUG [A22C A24G C51G A52C U56A A121C]	≤ -4.2
GGAUCUUCUCGAUCUAACAAACAAGACAAAUCUGCCACCAAGCUUGAGAGCAUCUUCGGAUGCAGAGGCGGCAGCCUUCGGUGGCGCGAUAGCGCCAACGUUCUCAACUAUGACACGCAAAACGCGUGCUCCGUUGAAUGGAGUUUAUCAUG [A22C A39C]	-2.49
GGAUCUUCUCGAUCUAACAAUAAAGACAAAUCUGCCACAAAGCUAGAGAGUAUCUUCGGAUGCAGAGUCGGCAGCAUUCGGUGGUGCGAUAGCGCCAACGUUCUCAACUAUGACACGCAAAACGCGAGCUCCGUUGAAUGGAGUUUAUCAUG [A21U U45A C51U G68U C76A C85U U127A]	≤ -4.2
GGAUCUUCUCGAUCUAACAAACAAGACACAUCUGCCACGAAGCUUGAGAGCAUCUUAGGAUGCAGAGGCGGCAGCCUUCGGUGGCGCGAUAGCGCCAACGUUCUCAACUAUGACACGCAAAACGCGUGCUCCGUUGAAUGGAGUUUAUCAUG [A22C A29C A39G C57A]	≤ -4.2
GGAUCUUCUCGAUCUAACAAUAAAGACAAAUCUGCCACAAAGCUUGAGAGCAUCUUCGGAUGCAGAGGCGGCAGCCUUCGGUCGCGCGAUAGCGCCAACGUUCUCAACUAUGACACGCAAAACGCGUGCUCCGUUGAAUGGAGUUUAUCAUG [A21U G83C]	-1.57
GGAUCUUCUCGAUCUAACAAUAAAGACAAAUCUGCCACAAAGCUUGAGAGCAUCUUCAGAUGCAGAGGCGGCAGCCUUCGGUGGCGCGAUAGCGCCAACGUUCUCAACUAUGACACGCAAAACCCGUGCUCCAUUGAAUGGAGUUUAGUAUG [A21U G58A G124C G133A U148G C149U]	≤ -4.2
GGAUCUUCUCGAUCUAACAAACAUCACAAAUCUGCCACAAAGCUUGAGAGCAUCUUCGGAUGCAGAGGCGGCAGCCUUCGGUGUCGCGAUAGCGCCAACGGUCUCAACUAUGACACGCAAAACGCGUGCUCCGUUGAAUGGAGUUGAUCAUG [A22C A24U G25C G84U U101G U146G]	≤ -4.2
GGAUCUUCUCGAUCUAACAAACAAGUCAAAUCUGCCACUAAGCUUGAGAGCAGCUUCGGAUGCAGCGGCGGCAGCCUUCGGUGGCGCGAUAGCGCCAACGUUCUCAACUAUGACACGCAAAACGCGUGCUCCGUUGAAUGGAGUUUAUCGUG [A22C A26U A39U U53G A66C A150G]	≤ -4.2
